± gives the uncertainty stated by the source. The full ranking holds about 9,900 compounds; the median of “viability index relative to DMSO control” is about 1, and the lowest 2% start at about 0.85. Some of the results follow.

Here are results for 34 molecules from the supplement of paper PMC4723716.

The subject of this assay is Plasmodium falciparum NF54 stage V gametocytes. As to the kind of experiment: viability index relative to DMSO control (fraction); higher = less gametocyte killing. The settings on record: 2.5 µM, incubation time: 72 h. The method, then:
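Broad DOS informer set and blood-stage-active DOS compounds screened in duplicate at 2.5 µM against P. falciparum NF54 stage V gametocytes with the serum-free one-step SaLSSA (1536-well): 72 h at 37 °C under low oxygen, then saponin lysis and MitoTracker Red CMXRos staining, with high-content imaging. Viability index = viable-object count divided by the plate mean of DMSO wells (0 = killed, about 1 = inactive).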

Setting [1] is: library set: Broad Institute DOS.

Regarding `COc1ccc(CN(C)C[C@@H]2OCCCC[C@H](C)Oc3ccc(NC(=O)C4CCCCC4)cc3C(=O)N([C@H](C)CO)C[C@H]2C)cc1`, under setting [1], the viability index amounted to 1.03 ± 0.037.
Still for that read-out and setting: under `COc1ccccc1S(=O)(=O)N1CC[C@@H]2[C@H]1c1cc(-c3cccc(C#N)c3)ccc1N(C)[C@H]2CO` stands 0.876 ± 0.046.
`CCCNC(=O)C[C@H]1CC[C@@H]2[C@@H](COc3ccc(NC(=O)CC)cc3C(=O)N2C)O1` returned a viability index under setting [1] of 1.05 ± 0.03.
As for `CO[C@@H]1CN(C)C(=O)c2cc(NC(=O)C3CCCCC3)ccc2OC[C@@H](C)N(Cc2cccnc2)C[C@@H]1C`, the viability index under setting [1] turned out to be 1.11 ± 0.041.
Molecule `COc1ccccc1NC(=O)N1C[C@H](O)COC[C@@H]2O[C@@H](CC(=O)N3CCC(Cc4ccccc4)CC3)CC[C@H]21` returned a viability index under setting [1] of 1.02 ± 0.049.
Same read-out and setting: under `C[C@H]1CN([C@@H](C)CO)C(=O)c2cc(-c3cccc(C#N)c3)cnc2O[C@@H]1CN(C)C(=O)C1CCOCC1` stands 1.04 ± 0.025; under `CO[C@H]1CN(C)C(=O)c2cccc(C#N)c2OCC[C@@H]2CC[C@@H](OC)[C@@H](CN(C)C(=O)[C@H]1C)O2`, 1.063 ± 0.0072.
Turning to `CCS(=O)(=O)Nc1ccc2c(c1)C(=O)N(C)[C@H]1CC[C@@H](CC(=O)NCc3ccc(OC)cc3)O[C@H]1CO2`, the viability index under setting [1] is 1.02 ± 0.059.
The same measure, in the same setting: under `COc1cccc(NC(=O)Nc2ccc3c(c2)C(=O)N(C)C[C@@H](OC)[C@@H](C)CN(CC2CC2)[C@@H](C)CO3)c1` stands 0.986 ± 0.13.
The molecule `Cc1noc(C)c1NC(=O)Nc1ccc2c(c1)C(=O)N([C@H](C)CO)C[C@H](C)[C@H](CN(C)S(=O)(=O)c1ccc(F)cc1)O2` displayed a viability index under setting [1] of 0.986 ± 0.086.
Take `COc1cccc(NC(=O)N2CC(=O)N3[C@H](CO)[C@@H](c4ccc(C#CCC5CCCC5)cc4)[C@@H]3C2)c1`: the viability index under setting [1] is 1.03 ± 0.018.
On to `CNC[C@H]1Oc2ccc(NC(=O)CCC(F)(F)F)cc2C(=O)N([C@H](C)CO)C[C@@H]1C`, for which, under setting [1], the viability index was determined as 1.01 ± 0.024.
In turn, `COc1ccc2c3c([C@@H](CO)N(Cc4ccc(F)cc4)C[C@]33CCN(C)CC3)n(C)c2c1` displayed a viability index under setting [1] of 0.916 ± 0.1.
As for `Cc1noc(C)c1NC(=O)N(C)C[C@@H]1OCc2ccccc2-c2c(n(C)c3ccccc23)C(=O)N([C@@H](C)CO)C[C@H]1C`, under setting [1], the viability index came to 1.02 ± 0.1.
The same measure, in the same setting: under `C[C@@H]1CN([C@H](C)CO)C(=O)c2cc(NS(=O)(=O)c3cn(C)cn3)ccc2O[C@H]1CN(C)S(=O)(=O)c1ccc(F)cc1` stands 0.919 ± 0.11.
The molecule `C[C@@H]1CN([C@H](C)CO)C(=O)CCCn2nncc2CO[C@H]1CN(C)C(=O)Nc1ccc(-c2cccs2)cc1` yielded a viability index under setting [1] of 1.096 ± 0.0014.
Turning to `O=C(C[C@H]1CC[C@H]2[C@@H](COC[C@H](O)CN2C(=O)Cc2ccccc2)O1)NC1Cc2ccccc2C1`, under setting [1], the viability index was 1.05 ± 0.091.
Under setting [1], `C[C@H]1CN([C@@H](C)CO)C(=O)CCCn2cc(nn2)CO[C@H]1CN(C)C(=O)CCC(F)(F)F` showed a viability index of 1.05 ± 0.013.
Molecule `O=C(CCN1CCCCC1)NCC[C@H]1CC[C@@H](NS(=O)(=O)c2cccc(Cl)c2)[C@H](CO)O1` registered a viability index under setting [1] of 0.973 ± 0.044.
Consider `O=C(NC1CCCC1)N[C@H]1C=C[C@H](CC(=O)N2CCOCC2)O[C@@H]1CO`, for which, under setting [1], the viability index was 1.03 ± 0.033.
Same read-out and setting: the figure for `CN1c2ccc(Br)cc2[C@@H]2[C@@H](CCN2C(=O)CN2CCOCC2)[C@@H]1CO` is 1.09 ± 0.055.
The same measure, in the same setting: the figure for `O=C(CC1CC1)N1[C@@H]2CN(S(=O)(=O)c3ccccc3F)c3ccccc3[C@@H]2[C@@H]1CO` is 1.03 ± 0.048; for `CN1C(=O)c2cc(NC(=O)C3CCOCC3)ccc2OC[C@@H]2O[C@@H](CC(=O)NCC3CCCCC3)CC[C@@H]21` it is 1.14 ± 0.16; for `COCC#Cc1ccc([C@@H]2[C@H](CO)N3C(=O)CN(C(=O)CN4CCOCC4)C[C@@H]23)cc1` it is 1.02 ± 0.05.
Take `CCCC(=O)N1CC[C@@]2(CC1)CN([C@@H](CO)c1[nH]c3cc(OC)ccc3c21)S(=O)(=O)c1ccc(C)cc1`: the viability index (library set: Broad Institute Blood Stage) was found to be 0.655 ± 0.046.
`CCc1nc(N2[C@H](CO)[C@H](c3ccccc3-c3ccccc3C)[C@@H]2C#N)sc1C` showed a viability index under setting [1] of 1.06 ± 0.046.
The molecule `C[C@H](NC(=O)C[C@@H]1C[C@@H]2c3cc(NS(=O)(=O)c4ccc(F)cc4)ccc3O[C@@H]2[C@H](CO)O1)c1ccccc1` displayed a viability index under setting [1] of 1.06 ± 0.034.
Consider `COc1cccc(S(=O)(=O)N[C@H]2CC[C@@H](CC(=O)NC3Cc4ccccc4C3)O[C@H]2CO)c1`, for which the viability index under setting [1] is 0.916 ± 0.086.
Molecule `OC[C@@H]1[C@@H]2c3ccccc3NC[C@@H]2N1Cc1ccccc1Cl` gave a viability index under setting [1] of 0.979 ± 0.024.
Consider `C[C@H]1CN([C@@H](C)CO)C(=O)c2c(c3ccccc3n2C)-c2ccccc2CO[C@H]1CN(C)S(=O)(=O)c1ccc([N+](=O)[O-])cc1`, for which, under setting [1], the viability index was determined as 1.04 ± 0.047.
Same read-out and setting: the figure for `CO[C@@H]1CN(C)C(=O)c2ccc(NC(=O)Nc3c(C)noc3C)cc2OC[C@H](C)N(CCC(F)(F)F)C[C@H]1C` is 1.09 ± 0.002.
As for `O=C(CCN1CCCCC1)N[C@H]1CC[C@H](CC(=O)N2CCC(Cc3ccccc3)CC2)O[C@@H]1CO`, the viability index under setting [1] was 1.05 ± 0.051.
Molecule `COCC(=O)Nc1ccc2c(c1)[C@@H]1C[C@H](CC(=O)N[C@@H](C)c3ccccc3)O[C@@H](CO)[C@@H]1O2` gave a viability index under setting [1] of 1.029 ± 0.0091.
The same measure, in the same setting: the figure for `COc1ccc(NC(=O)N(C)C[C@H]2Oc3c(NS(=O)(=O)c4c(C)noc4C)cccc3C(=O)N([C@@H](C)CO)C[C@H]2C)cc1` is 0.9888 ± 0.0037.
